We go through 62 molecules from PubChem BioAssay AID1508623 (National Center for Advancing Translational Sciences (NCATS), 2021).

In all, about 48,000 compounds went through this assay and about 450 (0.94%) were called active. Not shown: some 19% with an inconclusive outcome. The call rests on the fitted dose curve; in most records, active means well fitted inhibition curve with a large enough effect; inconclusive means small, poorly fitted or top-dose-only effect; inactive means no such curve, though single readings can be large or run the other way. The list shows a part of the results.

This test is described as follows: Primary qHTS for Identification of Small Molecule Inhibitors of Huntingtin Promoter Activity. Further: nearly all actives have a fitted effect of over 50% in size. Conditions: HEK293 HTT promoter firefly luciferase reporter (activity 0% = vehicle and -100% = no light), 24 h; series mostly up to 57.5 µM; activity change, negative = inhibition: at the top concentration. An outline of the steps: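 Luminescence was read after Dual-Glo reagent and a 10 min room-temperature incubation. Values were normalized to vehicle (0% activity) and zero RLU (-100% activity). Reporter HEK293 cells had been exposed to compounds (up to 57.5 uM final) for 24 h.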
A general note: Quantitative high-throughput screening tests each substance at several concentrations.
For the molecule `Cc1ccc(C2CC(=O)n3nc(-c4ccc(Cl)cc4)nc3S2)cc1` (configuration not stated), the “activity change, negative = inhibition” value is inactive: 7.52%.

`O=C(Cn1c(=O)n(-c2ccccc2)c(=O)c2c3c(sc21)CCC3)c1ccc(F)cc1`: the “activity change, negative = inhibition” value is inactive: -10%.

As for `Cc1c(Cl)cccc1-n1ncc(C(=O)NCCN2CCN(C)CC2)c1C1CCN(C(=O)OC(C)(C)C)CC1`, the “activity change, negative = inhibition” value was inactive: -3.84%.

For the molecule `O=C(NCc1ccccc1)c1ccc2c(c1)N(Cc1ccccc1F)C(=O)c1ccccc1S2=O` (configuration not stated), the “activity change, negative = inhibition” value is inactive: -19.4%.

In the case of `CCc1ccc(NC(=O)CSc2nc3c([nH]c4ccccc43)c(=O)n2-c2ccc(C)cc2)cc1`, the “activity change, negative = inhibition” value was inactive: -26.1%.

`Cc1ccc(CNC(=O)CCS(=O)(=O)c2cc3c4c(c2)CCN4C(=O)CC3)cc1`: the “activity change, negative = inhibition” value is inactive: -7.96%.

As to `CCN(CC)c1cc(C)c2cc(NC(=O)c3ccc(OC)c(OC)c3)ccc2n1`, the “activity change, negative = inhibition” value is inactive: -6.68%.

In the case of `CCOC(=O)c1scc(-c2ccccc2)c1S(=O)(=O)N1CCN(c2ccc(Cl)cc2)CC1`, the “activity change, negative = inhibition” value is inactive: -23.1%.

Regarding `COc1ccccc1C(=O)Nc1c(C(=O)Nc2cc(Cl)ccc2C)sc2nc(C)cc(C)c12`, the “activity change, negative = inhibition” value was inactive: -9.38%.

Take `COc1cccc(N2CCN(C(=O)c3cnc4c(-c5ccccc5)c(C)nn4c3C)CC2)c1`: the “activity change, negative = inhibition” value was inactive: -10.2%.

Take `Cc1ccccc1NC(=O)NCCc1c[nH]c2ccccc12`: the “activity change, negative = inhibition” value was inactive: -20.5%.

For the molecule `COc1cccc2cc(C(=O)N3CCN(c4cc(C)ccc4C)CC3)c(=O)oc12`, the “activity change, negative = inhibition” value is inactive: -9.67%.

Turning to `Cc1nc(SCC(=O)N2CCN(c3ccccc3)CC2)[nH]c(=O)c1C`, the “activity change, negative = inhibition” value was inactive: -13.3%.

In the case of `CCc1ccccc1NC(=O)CN(C)S(=O)(=O)c1cccc2nsnc12`, the “activity change, negative = inhibition” value is inactive: -24.7%.

For `COc1ccc(-c2ccc(NS(=O)(=O)c3ccc(NC(C)=O)cc3)cc2)nn1`, the “activity change, negative = inhibition” value is inactive: 6.03%.

As for `COc1ccc(OC)c(NC(=O)c2c(NCc3cccs3)sc3c2CCCCC3)c1`, the “activity change, negative = inhibition” value is inactive: -20.5%.

Turning to `CCOc1cc(CNC(=O)c2cc(-c3ccccc3)n[nH]2)cc(OCC)c1OCC`, the “activity change, negative = inhibition” value is inactive: -9.67%.

For `COc1ccc(N2CCN(C(=O)c3cc4c(=O)n(Cc5cccnc5)ccc4nc3C)CC2)cc1`, the “activity change, negative = inhibition” value was inactive: -15.5%.

On to `COc1ccc(CCNC(=O)c2cnn(-c3ccc(F)cc3)c2C2CCN(C(=O)OC(C)(C)C)CC2)cc1OC`, for which the “activity change, negative = inhibition” value was inactive: -13.9%.

As for `COc1ccc(NC(=O)c2oc3ccc(S(=O)(=O)N4CCOCC4)cc3c2C)c(OC)c1`, the “activity change, negative = inhibition” value was inactive: -1.07%.

Regarding `O=C(CN1C(=O)C2(SCC(=O)N2c2ccc(F)c(F)c2)c2ccccc21)NCCc1ccccc1` (configuration not stated), the “activity change, negative = inhibition” value is inactive: -8.49%.

For the molecule `CCN(CC)S(=O)(=O)c1ccc(NC(=O)Cn2ncc3c([nH]c4ccccc43)c2=O)cc1`, the “activity change, negative = inhibition” value is inactive: -6.72%.

Take `CC(Oc1ccccc1)C(=O)Nc1ccc(C(=O)OCc2cc(=O)n3nc(C(C)C)sc3n2)cc1` (configuration not stated): the “activity change, negative = inhibition” value is inactive: 2.65%.

As for `CCOc1ccc(/C=C/c2nc(C#N)c(N3CCN(CC)CC3)o2)cc1`, the “activity change, negative = inhibition” value is inactive: -0.177%.

Consider `Cc1cc(C)cc(OCC(=O)Nc2nc(-c3ccc(F)cc3)ns2)c1`, for which the “activity change, negative = inhibition” value is inactive: 6%.

With `Cc1cc(F)ccc1NC(=O)c1csc2c1CCC(C)C2` (configuration not stated), the “activity change, negative = inhibition” value is inactive: 53%.

With `Cc1ccccc1NC(=O)CSc1c(C(C)C)cnc2c1c(=O)n(C)c(=O)n2C`, the “activity change, negative = inhibition” value is inactive: -9.72%.

With `CCOc1ccccc1NC(=O)CSc1nc2ccccc2nc1N1CCOCC1`, the “activity change, negative = inhibition” value is inactive: -13.2%.

On to `CCCCN(C)CCNC(=O)c1nn(-c2ccc(OC)c(Cl)c2)c(=O)c2c1c1ccccc1n2C`, for which the “activity change, negative = inhibition” value was inactive: 1.69%.

With `Cc1nn(-c2ccccc2)c2sc(C(=O)Nc3ccc(Cl)cc3Cl)cc12`, the “activity change, negative = inhibition” value is inactive: 8.3%.

For `COc1ccc(CNC(=O)Cn2c(=O)c3cccn3c3cccnc32)cc1`, the “activity change, negative = inhibition” value is inactive: -8.84%.

With `COc1ccc(C(=O)Nc2nnc(SCc3cc(=O)c4cc(C)ccc4[nH]3)s2)cc1OC`, the “activity change, negative = inhibition” value was inactive: 7.1%.

As to `Cc1cccn2c(=O)c(C(=O)N3CCN(c4ccccc4F)CC3)cnc12`, the “activity change, negative = inhibition” value was inactive: 12.8%.

In the case of `CCN(CC)c1ccc2cc(-c3nnc(Nc4ccc(C)cc4)s3)c(=O)oc2c1`, the “activity change, negative = inhibition” value is inactive: -11%.

As to `COC(=O)c1ccc(NC(=O)c2c(NCc3cccc(F)c3)sc3c2CCCC3)cc1`, the “activity change, negative = inhibition” value was inactive: -22.1%.

`Cc1cc2c(cc1S(=O)(=O)N(CCN(C)C)Cc1ccccc1)OCC(=O)N2`: the “activity change, negative = inhibition” value is inactive: 5.49%.

`COc1ccccc1C(c1c(O)cc(C)n(Cc2ccco2)c1=O)N1CCCCC1` (configuration not stated): the “activity change, negative = inhibition” value was inactive: -9.73%.

Regarding `CCC(Oc1ccccc1F)C(=O)Nc1cc(-c2ccccc2)no1` (configuration not stated), the “activity change, negative = inhibition” value was inactive: -8.89%.

Consider `COc1ccc(S(=O)(=O)N(CC(=O)NCCSc2ccc(C)cc2)c2ccc(C)cc2)cc1`, for which the “activity change, negative = inhibition” value was inactive: -19.4%.

For the molecule `CCOc1ccccc1NC(=O)CSc1c2c(nc3ccc(Cl)cc13)CCCC2`, the “activity change, negative = inhibition” value is inactive: -5.62%.

In the case of `CCOc1ccccc1NC(=O)c1nc(S(=O)(=O)Cc2cccc(C)c2)ncc1Cl`, the “activity change, negative = inhibition” value is inactive: 5.66%.

With `COc1ccc(-c2noc(CNC(=O)c3cc(OC)c(OC)c(OC)c3)n2)cc1`, the “activity change, negative = inhibition” value is inactive: -5.04%.

Turning to `CC1CCc2onc(C(=O)Nc3ccc(Cl)cc3)c2C1` (configuration not stated), the “activity change, negative = inhibition” value is inactive: 78.7%.

Regarding `COc1cccc(-c2nc(-c3ccc(Br)o3)no2)c1`, the “activity change, negative = inhibition” value was inactive: 64.6%.

Regarding `Cc1[nH]c2ccc(C(=O)NCCCN3CCCCC3)cc2c1C`, the “activity change, negative = inhibition” value was inactive: -7.8%.

As to `CC(=O)N1CCC(N(Cc2ccc(C)o2)C(=O)Nc2ccccc2F)CC1`, the “activity change, negative = inhibition” value is inactive: 3.11%.

As to `Cc1nc2c(c(C)c1CCC(=O)NCc1ccc(F)cc1)c(=O)n(C)c(=O)n2C`, the “activity change, negative = inhibition” value is inactive: 6.41%.

On to `COc1ccc(NCc2cc3cc4c(cc3n(CC(=O)Nc3ccc(C)cc3C)c2=O)OCO4)cc1`, for which the “activity change, negative = inhibition” value is inactive: -20.6%.

For `CCOc1c(Br)cc(C2C=C(C(=O)O)Nc3ncnn32)cc1OC` (configuration not stated), the “activity change, negative = inhibition” value is inactive: -8.52%.

As to `CC(=O)N1c2ccccc2C(=O)C1N1CCN(c2ccc(Cl)cc2)CC1` (configuration not stated), the “activity change, negative = inhibition” value was inactive: -28.2%.

Turning to `O=C(NCc1ccccc1)c1cc(Sc2cccc(Cl)c2)nc2ccccc12`, the “activity change, negative = inhibition” value is inactive: -17.2%.

For the molecule `CCOC(=O)c1cc(OC(=O)c2ccccc2F)n(-c2ccccc2)n1`, the “activity change, negative = inhibition” value was inactive: -1.32%.

For `Nc1nc2c(ncn2COCCO)c(=O)[nH]1`, the activity change, negative = inhibition entry is “inactive”.

Turning to `Cc1ccc(-c2nc(S(=O)(=O)c3ccc(F)cc3)c(N3CCN(c4ccccc4)CC3)o2)cc1`, the “activity change, negative = inhibition” value was inactive: -14.4%.

Regarding `CC(C)C[C@H](N)c1nnc(SCc2ccc(Cl)cc2Cl)o1`, the “activity change, negative = inhibition” value was inactive: -29.1%.

Consider `CC1=C(c2ccc(C(C)C)cc2)S(=O)(=O)N=C1N1CCN(c2ccccc2F)CC1`, for which the “activity change, negative = inhibition” value is inactive: -24.7%.

Turning to `CN1CCN(C(CNC(=O)C(=O)Nc2ccc(Cl)cc2)c2cccnc2)CC1` (configuration not stated), the “activity change, negative = inhibition” value was inactive: -0.507%.

As to `Cc1ccc(C)c(N2CCN(C(=O)CCc3nnc4n(C)c(=O)c5ccccc5n34)CC2)c1`, the “activity change, negative = inhibition” value was inactive: -0.169%.

Take `CCOC(=O)c1cccnc1SCC(=O)N(CC)c1cccc(C)c1`: the “activity change, negative = inhibition” value is inactive: -26.2%.

As for `CC(C)(C)c1ccc(OCC(=O)Nc2ccc(C(=O)OC3CCCCC3)cc2)cc1`, the “activity change, negative = inhibition” value is inactive: 3.2%.

Consider `COc1ccc(F)cc1S(=O)(=O)NCC(c1ccco1)S(=O)(=O)c1cccs1` (configuration not stated), for which the “activity change, negative = inhibition” value is inactive: -7%.

`CC(C)Cn1nc(NC(=O)c2cccc(Cl)c2)c2cc3ccccc3nc21`: the “activity change, negative = inhibition” value is inactive: -17.9%.
